Measured values: the supplement of paper PMC8728848
This is one part of the list.

Tests used:
Test in all cases: glycan array binding signal (z-score within array); higher = stronger binding
Conditions in all cases: glycan notation: IUPAC condensed, linker removed
[1] = biological target: GlcNAc(b1-2)Gal(b1-3)GalNAc
Procedure, shortened: (§1)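 Glycan array data came from 3228 arrays in the Consortium for Functional Glycomics database, and only arrays with an available protein sequence were kept. Glycan names were put into IUPAC-condensed notation, and columns mapping to the same glycan were averaged. The binding signal is a within-array Z-score, averaged across arrays of one protein sequence run at different concentrations or buffers and across linkers. A negative Z-score can be read as non-binding.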

[2] = biological target: GlcNAc(b1-2)Man(a1-3)[GlcNAc(b1-2)Man(a1-6)]Man(b1-4)GlcNAc(b1-4)GlcNAc
Procedure, shortened: as §1

[3] = biological target: GlcNAc(b1-2)Man(a1-3)[GlcNAc(b1-2)Man(a1-6)]Man(b1-4)GlcNAc(b1-4)[Fuc(a1-6)]GlcNAc
Procedure, shortened: as §1

[4] = biological target: GlcNAc(b1-2)Man(a1-3)[GlcNAc(b1-4)][GlcNAc(b1-2)Man(a1-6)]Man(b1-4)GlcNAc(b1-4)GlcNAc
Procedure, shortened: as §1

[5] = biological target: GlcNAc(b1-2)Man(a1-3)[GlcNAc(b1-4)][GlcNAc(b1-2)Man(a1-6)]Man(b1-4)GlcNAc(b1-4)[Fuc(a1-6)]GlcNAc
Procedure, shortened: as §1

[6] = biological target: GlcNAc(b1-2)[GlcNAc(b1-4)]Man(a1-3)[GlcNAc(b1-2)Man(a1-6)]Man(b1-4)GlcNAc(b1-4)GlcNAc
Procedure, shortened: as §1

[7] = biological target: GlcNAc(b1-2)[GlcNAc(b1-4)]Man(a1-3)[GlcNAc(b1-4)][GlcNAc(b1-2)Man(a1-6)]Man(b1-4)GlcNAc(b1-4)GlcNAc
Procedure, shortened: as §1

[8] = biological target: GlcNAc(b1-2)[GlcNAc(b1-4)]Man(a1-3)[GlcNAc(b1-4)][GlcNAc(b1-2)[GlcNAc(b1-6)]Man(a1-6)]Man(b1-4)GlcNAc(b1-4)GlcNAc
Procedure, shortened: as §1

[9] = biological target: GlcNAc(b1-2)[GlcNAc(b1-4)]Man(a1-3)[GlcNAc(b1-4)][GlcNAc(b1-2)[GlcNAc(b1-6)]Man(a1-6)]Man(b1-4)GlcNAc(b1-4)[Fuc(a1-6)]GlcNAc
Procedure, shortened: as §1

[10] = biological target: GlcNAc(b1-2)[GlcNAc(b1-6)]Man(a1-6)[GlcNAc(b1-2)Man(a1-3)]Man(b1-4)GlcNAc(b1-4)GlcNAc
Procedure, shortened: as §1

[11] = biological target: GlcNAc(b1-2)[GlcNAc(b1-6)]Man(a1-6)[GlcNAc(b1-2)Man(a1-3)]Man(b1-4)GlcNAc(b1-4)[Fuc(a1-6)]GlcNAc
Procedure, shortened: as §1

[12] = biological target: GlcNAc(b1-2)[GlcNAc(b1-6)]Man(a1-6)[GlcNAc(b1-4)][GlcNAc(b1-2)Man(a1-3)]Man(b1-4)GlcNAc(b1-4)GlcNAc
Procedure, shortened: as §1

[13] = biological target: GlcNAc(b1-3)Fuc
Procedure, shortened: as §1

[14] = biological target: GlcNAc(b1-3)Gal
Procedure, shortened: as §1

[15] = biological target: GlcNAc(b1-3)Gal(b1-3)GalNAc
Procedure, shortened: as §1

[16] = biological target: GlcNAc(b1-3)Gal(b1-4)Glc
Procedure, shortened: as §1

[17] = biological target: GlcNAc(b1-3)Gal(b1-4)GlcNAc
Procedure, shortened: as §1

[18] = biological target: GlcNAc(b1-3)Gal(b1-4)GlcNAc(b1-2)Man(a1-3)[GlcNAc(b1-3)Gal(b1-4)GlcNAc(b1-2)Man(a1-6)]Man(b1-4)GlcNAc(b1-4)GlcNAc
Procedure, shortened: as §1

[19] = biological target: GlcNAc(b1-3)Gal(b1-4)GlcNAc(b1-2)Man(a1-3)[GlcNAc(b1-3)Gal(b1-4)GlcNAc(b1-2)Man(a1-6)]Man(b1-4)GlcNAc(b1-4)[Fuc(a1-6)]GlcNAc
Procedure, shortened: as §1

[20] = biological target: GlcNAc(b1-3)Gal(b1-4)GlcNAc(b1-2)[GlcNAc(b1-3)Gal(b1-4)GlcNAc(b1-6)]Man(a1-6)[GlcNAc(b1-3)Gal(b1-4)GlcNAc(b1-2)Man(a1-3)]Man(b1-4)GlcNAc(b1-4)GlcNAc
Procedure, shortened: as §1

[21] = biological target: GlcNAc(b1-3)Gal(b1-4)GlcNAc(b1-3)Gal(b1-4)GlcNAc
Procedure, shortened: as §1

[22] = biological target: GlcNAc(b1-3)Gal(b1-4)GlcNAc(b1-3)Gal(b1-4)GlcNAc(b1-2)Man(a1-3)[GlcNAc(b1-3)Gal(b1-4)GlcNAc(b1-3)Gal(b1-4)GlcNAc(b1-2)Man(a1-6)]Man(b1-4)GlcNAc(b1-4)GlcNAc
Procedure, shortened: as §1

B1: CLECb-Precomplexed (Mus musculus), P43025 (protein)
chain: MAKNGLVLCILVVSLLLDQTDGYPSRMKARKHSKRRVKAKDDDLKSQVEKLWREVNALKEMQALQTVCLRGTKVHKKCYLASEGLKHYHEANEDCISKGGTLVVPRNSDEINALRDYGKRSLPGVNDFWLGINDMVTEGKFLDVHGFAVSFLNWDRAQPSGGKRENCVLFSQSAQGKWSDEACRSSKRYICEFIIPTRTRPLEQKLISEEDLAANDILDYKDDDDKV
glycan array binding signal (z-score) [1]: -0.071
glycan array binding signal (z-score) [2]: -0.332
glycan array binding signal (z-score) [3]: -0.116
glycan array binding signal (z-score) [4]: -0.373
glycan array binding signal (z-score) [5]: 0.065
glycan array binding signal (z-score) [6]: -0.479
glycan array binding signal (z-score) [7]: -0.064
glycan array binding signal (z-score) [8]: -0.085
glycan array binding signal (z-score) [9]: -0.505
glycan array binding signal (z-score) [10]: -0.144
glycan array binding signal (z-score) [11]: -0.362
glycan array binding signal (z-score) [12]: -0.244
glycan array binding signal (z-score) [13]: -0.487
glycan array binding signal (z-score) [14]: -0.251
glycan array binding signal (z-score) [15]: -0.1
glycan array binding signal (z-score) [16]: -0.351
glycan array binding signal (z-score) [17]: -0.118
glycan array binding signal (z-score) [18]: -0.043
glycan array binding signal (z-score) [19]: -0.522
glycan array binding signal (z-score) [20]: 0.589
glycan array binding signal (z-score) [21]: 0.043
glycan array binding signal (z-score) [22]: 0.084
